Experimental data reported in the BET-seq Pho4 binding data (Le et al. 2018).
The other results are listed elsewhere or left out. These are noisy estimates, calculated here from bound and input reads.

Molecular target: T1, Pho4 (S. cerevisiae) (UniProt P07270)
T1 sequence: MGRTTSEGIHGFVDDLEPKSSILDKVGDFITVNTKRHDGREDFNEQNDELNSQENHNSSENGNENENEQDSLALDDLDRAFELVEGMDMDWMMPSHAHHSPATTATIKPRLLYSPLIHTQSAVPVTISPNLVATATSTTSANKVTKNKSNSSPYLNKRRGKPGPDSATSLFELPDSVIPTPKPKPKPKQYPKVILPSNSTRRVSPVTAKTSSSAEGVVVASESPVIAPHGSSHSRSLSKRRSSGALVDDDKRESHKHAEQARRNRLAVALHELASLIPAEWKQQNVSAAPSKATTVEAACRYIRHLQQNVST
Test: relative binding free energy (BET-seq); higher = weaker binding
Details: reference: library average

Sequence | relative binding free energy [kcal/mol]
GTCTACACGTGATGGG | 0.35
ATTAACACGTGTCGTA | 0
GCTATCACGTGGGGGG | -0.03
TCTTCCACGTGTTGTG | 0.06
GTCTGCACGTGGAGGG | -0.05
ACTTACACGTGTTGTA | 0.06
GCTGGCACGTGTAGAT | 0.3
ATTGACACGTGGTGAT | -0.21
ATAGGCACGTGATTAG | 0
TTTTGCACGTGGGTTT | 0.01
TTAGTCACGTGGATGT | 0.12
GTACACACGTGTAGGT | 0.01
TTTTGCACGTGCAGCG | 0.01
CTGTTCACGTGGTCTG | 0.15
TGGGCCACGTGTGAAT | 0
TCGGGCACGTGGTATG | -0.17
GTGCGCACGTGATTAG | 0.15
GTTTGCACGTGGGGAT | 0.03
ATATCCACGTGGTTTT | 0.09
TAATTCACGTGGCCGT | 0.29
GACGTCACGTGGTGGG | 0.09
CGGGACACGTGAGCGG | 0.35
AGTCGCACGTGCGGGA | -0.17

Sequence | relative binding free energy [kcal/mol]
GACAACACGTGGGGTT | -0.07
GGCTGCACGTGGTTTC | 0.14
TGCGTCACGTGATGGG | 0.21
GTTACCACGTGTGGTT | 0.06
TGGTTCACGTGCTTCG | 0.26
GTGAGCACGTGGGAAT | -0.08
GTCTGCACGTGAGATG | 0.33
TGCTTCACGTGTTGGA | 0.21
CTATTCACGTGGTTTT | 0.16
GAGGGCACGTGCGATT | -0.08
GTGGACACGTGGAGGA | 0.02
TGGATCACGTGTTTGC | 0.01
AGTTGCACGTGGTGGT | -0.05
CGTAGCACGTGGTTTG | -0.26
TAGGCCACGTGGTGCG | -0.27
GTTTTCACGTGGCCGG | 0.29
GGATTCACGTGCGAGT | 0.3
TAGTACACGTGATAGG | 0.31
GTGCTCACGTGGTGCG | 0.09
GGATGCACGTGTAAAT | 0.14
CTGTACACGTGGTTGG | 0
TTTCTCACGTGGGTCA | 0.05
TACGGCACGTGGTGAA | -0.04

Sequence | relative binding free energy [kcal/mol]
ATTAACACGTGCGGGA | 0
TCTTGCACGTGATGGC | 0.24
CGTTACACGTGGATGT | 0.05
TTTTCCACGTGTCGTT | 0.01
TTTAGCACGTGGGTGA | -0.13
AAGAGCACGTGTGTAG | 0.01
TTCATCACGTGAGAGG | 0.42
AGGGGCACGTGGAATG | -0.05
ATTGGCACGTGGAATG | -0.01
TTTAGCACGTGACGGA | 0.1
TTTAACACGTGTGTCA | 0.03
AATCTCACGTGTTTAG | 0.35
TGGGGCACGTGCTATT | -0.19
ATTATCACGTGAAGTG | 0.37
GTTGTCACGTGGCTCT | 0.09
AGGGTCACGTGGCGTG | -0.05
TGTAGCACGTGTGTAT | -0.07
AATTGCACGTGTTTGC | 0.11
GGGTGCACGTGGTGGA | 0.09
TAGTTCACGTGGAGAG | 0.32
ACAGTCACGTGGGATG | 0.06
CAGTACACGTGGGGGG | -0.14
TATTACACGTGGGCGC | 0.02

Sequence | relative binding free energy [kcal/mol]
AGAGGCACGTGGGGGA | -0.26
GTTTTCACGTGTCTCG | 0.27
AGTTTCACGTGGAGGT | 0.22
GAAATCACGTGGTGAT | 0.29
TAGAGCACGTGGAGTG | -0.14
GAGTACACGTGGTTAG | 0
GTCTACACGTGCGTTT | 0.15
TTTATCACGTGGTTAT | 0.11
GCGTCCACGTGGTGTG | -0.13
GAGGACACGTGTTAGG | 0.02
AAGCACACGTGGGGGT | -0.08
CTACGCACGTGGGTGG | -0.17
TTAGGCACGTGTAGTT | -0.03
TTGGGCACGTGGAGTA | -0.2
AAGCGCACGTGGTGGG | -0.15
ATTGGCACGTGGAAGG | -0.03
TGTGACACGTGGTTCA | -0.11
CAGGGCACGTGAGATG | 0.18
AGAAACACGTGGGGGA | 0.01
CGTACCACGTGGTTTT | 0.11
GAAGTCACGTGTGTGC | 0.19
GTTCTCACGTGGGGCA | 0.21
CTGGGCACGTGGAGAT | -0.05

Sequence | relative binding free energy [kcal/mol]
GGCTGCACGTGGGGAA | -0.02
TTTTCCACGTGTGTGG | 0.09
GTTGGCACGTGAAGAA | 0.24
GCTTTCACGTGGGGGC | 0.18
GTTATCACGTGCGTGT | 0.08
GGTGTCACGTGGAGTA | 0.16
AGGCTCACGTGGTATT | 0.13
TTTAGCACGTGGAAGC | 0.04
TGGTCCACGTGGTATG | -0.12
CTGGGCACGTGCGGCA | -0.17
AGGCTCACGTGGGTTC | 0.19
TATCTCACGTGTGTCT | 0.35
GCGCACACGTGGGTGG | -0.09
ATTTTCACGTGTTTAA | 0.22
TTTGGCACGTGTGATA | -0.11
ATTCGCACGTGTATTG | 0.02
GTATTCACGTGAGTGG | 0.32
ATCATCACGTGGTTGA | 0.18
TCTGGCACGTGTTGGT | 0.06
TGTGACACGTGGAACG | 0.14
ATGTCCACGTGGCTGG | 0
GCTTCCACGTGTGTTG | 0.17
GAGTGCACGTGGTCAA | -0.06
